# According to the BET-seq Pho4 binding data (Le et al. 2018):
# Some of the results follow. The energies were worked out here from pooled read counts, against the library average; single values are noisy.
# Target: T1, Pho4 (S. cerevisiae) (UniProt P07270)
# T1 sequence: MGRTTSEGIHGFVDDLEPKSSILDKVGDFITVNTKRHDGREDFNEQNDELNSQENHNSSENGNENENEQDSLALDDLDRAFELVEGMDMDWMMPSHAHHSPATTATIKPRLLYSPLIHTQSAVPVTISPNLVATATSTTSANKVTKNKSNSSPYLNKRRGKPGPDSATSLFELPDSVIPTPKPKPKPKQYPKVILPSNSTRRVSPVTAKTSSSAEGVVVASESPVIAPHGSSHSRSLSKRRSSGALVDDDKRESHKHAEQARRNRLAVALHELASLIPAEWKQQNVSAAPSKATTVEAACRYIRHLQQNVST
# Test: relative binding free energy (BET-seq); higher = weaker binding
# Conditions: reference: library average
row,Sequence,relative binding free energy
1,GGGATCACGTGGTCTG,0.22 kcal/mol
2,TTTATCACGTGCATAG,0.1 kcal/mol
3,GTGGGCACGTGACGCG,0.01 kcal/mol
4,GGGAGCACGTGTATGC,-0.08 kcal/mol
5,AAGGTCACGTGTTGTG,0.2 kcal/mol
6,TCGTTCACGTGAGGTT,0.44 kcal/mol
7,GGGGTCACGTGGTAGA,0.14 kcal/mol
8,GGTGGCACGTGCGCGG,-0.12 kcal/mol
9,GTTGTCACGTGACATA,0.28 kcal/mol
10,ATTTGCACGTGATGGG,0.16 kcal/mol
11,GAGGCCACGTGTTTGT,0 kcal/mol
12,CTGGCCACGTGGGTTG,-0.12 kcal/mol
13,ATATACACGTGTTTAT,-0.12 kcal/mol
14,TATTTCACGTGTCTTT,0.21 kcal/mol
15,CCGGGCACGTGATGGG,-0.05 kcal/mol
16,AGTTTCACGTGTCCGT,0.36 kcal/mol
17,TGGCGCACGTGTGGAA,-0.14 kcal/mol
18,GAATACACGTGGTGGC,0.18 kcal/mol
19,GTGTGCACGTGTTTAG,-0.04 kcal/mol
20,CGACTCACGTGGGGTA,0.18 kcal/mol
21,CTGCGCACGTGAGGGG,0.1 kcal/mol
22,TTCGACACGTGTAGGT,0.12 kcal/mol
23,GGAGGCACGTGCGTTT,-0.08 kcal/mol
24,TGTCTCACGTGTGGTG,0.1 kcal/mol
25,GGTCTCACGTGATTGT,0.36 kcal/mol

row,Sequence,relative binding free energy
1,GATGTCACGTGGTAAG,0.02 kcal/mol
2,GCATACACGTGTGGGG,-0.01 kcal/mol
3,TCGATCACGTGTTTTT,0.22 kcal/mol
4,AGTTGCACGTGCAAAG,0.06 kcal/mol
5,CTGTTCACGTGGGCTT,0.14 kcal/mol
6,GAGGACACGTGTTGTG,0 kcal/mol
7,TTTAGCACGTGCATTT,-0.07 kcal/mol
8,GGGCGCACGTGTGTGC,-0.11 kcal/mol
9,TGTGTCACGTGTCTGT,0.08 kcal/mol
10,AACTGCACGTGGTATG,-0.09 kcal/mol
11,TGCAACACGTGGGGTG,-0.18 kcal/mol
12,AGATGCACGTGGAGAG,-0.05 kcal/mol
13,GTGCGCACGTGGAATA,0.18 kcal/mol
14,ATGGTCACGTGGGTCA,-0.09 kcal/mol
15,TGTGTCACGTGGTTAC,-0.05 kcal/mol
16,GATGGCACGTGGTTTT,0 kcal/mol
17,GTGGGCACGTGTATGG,-0.01 kcal/mol
18,AATATCACGTGGGTTT,0.14 kcal/mol
19,GATTTCACGTGTTGCA,0.38 kcal/mol
20,GAAGACACGTGAGGTG,0.21 kcal/mol
21,TGTGACACGTGCTAGT,-0.11 kcal/mol
22,TTTGTCACGTGATATA,0.12 kcal/mol
23,ATTGGCACGTGGTTTG,-0.23 kcal/mol
24,GATTGCACGTGTATAT,0.14 kcal/mol
25,AGTACCACGTGGGGTA,-0.33 kcal/mol

row,Sequence,relative binding free energy
1,ATAGTCACGTGGGATC,0.04 kcal/mol
2,CGGGGCACGTGCAGGC,-0.01 kcal/mol
3,TGATGCACGTGTTGAA,-0.03 kcal/mol
4,GGGGTCACGTGATTCA,0.23 kcal/mol
5,TGAGGCACGTGCGAAT,0.1 kcal/mol
6,CCGAGCACGTGGGTGT,-0.25 kcal/mol
7,GACGGCACGTGTGGGA,-0.11 kcal/mol
8,CTTTTCACGTGTGATG,0.45 kcal/mol
9,TTTATCACGTGTTTTA,0.07 kcal/mol
10,AAATTCACGTGTGCTT,0.18 kcal/mol
11,GAAGGCACGTGGGCGC,-0.22 kcal/mol
12,ACGTGCACGTGGTTGA,-0.21 kcal/mol
13,ATAAACACGTGATTGT,0.1 kcal/mol
14,GTTGACACGTGGATTG,0.11 kcal/mol
15,CACGGCACGTGCGGGT,-0.12 kcal/mol
16,TTTGGCACGTGAAGGT,0.15 kcal/mol
17,TGTTTCACGTGCTTGC,0.32 kcal/mol
18,CTATTCACGTGAAGGT,0.44 kcal/mol
19,TTTTGCACGTGAGCCG,0.21 kcal/mol
20,AGTTGCACGTGCTGAT,-0.08 kcal/mol
21,TATAGCACGTGATGCT,-0.09 kcal/mol
22,GATCTCACGTGGGGCT,0.19 kcal/mol
23,TTTGACACGTGCAATG,0.13 kcal/mol
24,TTTGTCACGTGGAGCA,0.03 kcal/mol
25,ATTAGCACGTGGAATG,0.07 kcal/mol

row,Sequence,relative binding free energy
1,AATCGCACGTGGTAGT,-0.17 kcal/mol
2,TGTTGCACGTGCCGTT,0.03 kcal/mol
3,TGTGGCACGTGGGTAA,-0.18 kcal/mol
4,TTGCACACGTGTGTGG,0.07 kcal/mol
5,CTTATCACGTGGCGGG,0 kcal/mol
6,GTGCACACGTGGGATA,0.05 kcal/mol
7,TGTTTCACGTGATGCG,0.2 kcal/mol
8,CTATGCACGTGTTGGG,0.07 kcal/mol
9,TGTGGCACGTGGAGTT,-0.02 kcal/mol
10,GTTTACACGTGCTAGT,0.13 kcal/mol
11,GTTGACACGTGGCTTG,-0.24 kcal/mol
12,CTTGCCACGTGTTTGT,-0.09 kcal/mol
13,CGCGGCACGTGGTGGG,-0.23 kcal/mol
14,ATGCTCACGTGGGTTC,0.04 kcal/mol
15,GTGTTCACGTGGCTGC,0.17 kcal/mol
16,TATAACACGTGTTTTG,-0.11 kcal/mol
17,TTTAGCACGTGTCTGT,-0.18 kcal/mol
18,AGGGCCACGTGTAATG,0.07 kcal/mol
19,TCTTGCACGTGGTTCG,-0.03 kcal/mol
20,AAGGACACGTGGTAGT,-0.02 kcal/mol
21,TGCTTCACGTGATATA,0.37 kcal/mol
22,TTGCGCACGTGGTTCG,-0.1 kcal/mol
23,AATCTCACGTGGGGGG,-0.01 kcal/mol
24,TTCGGCACGTGTTAAT,0.05 kcal/mol
25,TTTGTCACGTGGGATC,0.14 kcal/mol

row,Sequence,relative binding free energy
1,GGACGCACGTGGGGTG,-0.29 kcal/mol
2,TGGTGCACGTGTTCAA,-0.06 kcal/mol
3,GAGGACACGTGTGGAG,0.12 kcal/mol
4,ATGTGCACGTGGGATT,-0.18 kcal/mol
5,GGTGTCACGTGGACTA,0 kcal/mol
6,AAGGTCACGTGGTCGT,-0.01 kcal/mol
7,TTTCGCACGTGGGAGC,-0.08 kcal/mol
8,AGTTGCACGTGTTGAT,0.01 kcal/mol
9,TATCTCACGTGTTAGG,0.1 kcal/mol
10,ATAAACACGTGTTAAG,0.18 kcal/mol
11,GTTATCACGTGATTGG,0.33 kcal/mol
12,TCAGGCACGTGAGGTT,0.09 kcal/mol
13,AACGTCACGTGGTGAT,0.06 kcal/mol
14,TGTTACACGTGAGTTC,0.27 kcal/mol
15,TAATACACGTGGTTAT,-0.09 kcal/mol
16,GGTAACACGTGTTTCG,0.13 kcal/mol
17,TGAAGCACGTGTCGGG,-0.14 kcal/mol
18,TTTGACACGTGTTGTC,-0.02 kcal/mol
19,GGGAGCACGTGTATAT,-0.02 kcal/mol
20,GTTGACACGTGTGGTG,0.1 kcal/mol
21,AGCCGCACGTGAGTGT,0.13 kcal/mol
22,GTCTTCACGTGGAGGG,0.3 kcal/mol
23,GGGCGCACGTGCGGAT,-0.08 kcal/mol
24,TTTATCACGTGTTAAT,0.13 kcal/mol
25,CGTTACACGTGGATTG,0.14 kcal/mol

row,Sequence,relative binding free energy
1,AGAATCACGTGTGGCG,0.12 kcal/mol
2,CTTGTCACGTGGATTA,0.11 kcal/mol
3,ATAATCACGTGTTAGG,0.1 kcal/mol
4,GTGTCCACGTGTATTA,0.15 kcal/mol
5,AAGGTCACGTGTTGTA,0.19 kcal/mol
6,AGTGGCACGTGTTAGA,-0.14 kcal/mol
7,GGTACCACGTGAGGTG,0.14 kcal/mol
8,ATTTTCACGTGTATGA,0.34 kcal/mol
9,GTGAACACGTGGAGGG,0.04 kcal/mol
10,AGGTACACGTGTTCAG,0.14 kcal/mol
11,TCAGGCACGTGTGGGA,0.09 kcal/mol
12,AGTGTCACGTGTCTGC,0.19 kcal/mol
13,TGTCACACGTGTTTGT,0.06 kcal/mol
14,TTGAACACGTGTTCGT,0.05 kcal/mol
15,GTGAACACGTGGGTAA,-0.15 kcal/mol
16,CGGTCCACGTGGTGTA,-0.1 kcal/mol
17,AGTGCCACGTGTATTG,-0.06 kcal/mol
18,ATATACACGTGGGGTC,-0.23 kcal/mol
19,GGTGGCACGTGTTACT,-0.09 kcal/mol
20,TTTCACACGTGGAAGG,0.15 kcal/mol
21,GGTTGCACGTGACATG,0.23 kcal/mol
